# From paper PMC4336329 (PLoS ONE, 2015)
# In all, about 310,000 compounds went through this assay and about 14,000 (4.5%) showed an effect of 50% or more. The effect is printed as a negative number. The list shows a part of the results.
# Biological target: human ether-à-go-go-related gene (hERG) potassium channel (human, UniProt Q12809)
# Experiment: primary screen, population patch clamp on CHO cells stably expressing hERG
# 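Also: peak tail current of the secondary pulse compared with the same well before compound.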
# Chain of human ether-à-go-go-related gene (hERG) potassium channel (Q12809 whole entry, looked up): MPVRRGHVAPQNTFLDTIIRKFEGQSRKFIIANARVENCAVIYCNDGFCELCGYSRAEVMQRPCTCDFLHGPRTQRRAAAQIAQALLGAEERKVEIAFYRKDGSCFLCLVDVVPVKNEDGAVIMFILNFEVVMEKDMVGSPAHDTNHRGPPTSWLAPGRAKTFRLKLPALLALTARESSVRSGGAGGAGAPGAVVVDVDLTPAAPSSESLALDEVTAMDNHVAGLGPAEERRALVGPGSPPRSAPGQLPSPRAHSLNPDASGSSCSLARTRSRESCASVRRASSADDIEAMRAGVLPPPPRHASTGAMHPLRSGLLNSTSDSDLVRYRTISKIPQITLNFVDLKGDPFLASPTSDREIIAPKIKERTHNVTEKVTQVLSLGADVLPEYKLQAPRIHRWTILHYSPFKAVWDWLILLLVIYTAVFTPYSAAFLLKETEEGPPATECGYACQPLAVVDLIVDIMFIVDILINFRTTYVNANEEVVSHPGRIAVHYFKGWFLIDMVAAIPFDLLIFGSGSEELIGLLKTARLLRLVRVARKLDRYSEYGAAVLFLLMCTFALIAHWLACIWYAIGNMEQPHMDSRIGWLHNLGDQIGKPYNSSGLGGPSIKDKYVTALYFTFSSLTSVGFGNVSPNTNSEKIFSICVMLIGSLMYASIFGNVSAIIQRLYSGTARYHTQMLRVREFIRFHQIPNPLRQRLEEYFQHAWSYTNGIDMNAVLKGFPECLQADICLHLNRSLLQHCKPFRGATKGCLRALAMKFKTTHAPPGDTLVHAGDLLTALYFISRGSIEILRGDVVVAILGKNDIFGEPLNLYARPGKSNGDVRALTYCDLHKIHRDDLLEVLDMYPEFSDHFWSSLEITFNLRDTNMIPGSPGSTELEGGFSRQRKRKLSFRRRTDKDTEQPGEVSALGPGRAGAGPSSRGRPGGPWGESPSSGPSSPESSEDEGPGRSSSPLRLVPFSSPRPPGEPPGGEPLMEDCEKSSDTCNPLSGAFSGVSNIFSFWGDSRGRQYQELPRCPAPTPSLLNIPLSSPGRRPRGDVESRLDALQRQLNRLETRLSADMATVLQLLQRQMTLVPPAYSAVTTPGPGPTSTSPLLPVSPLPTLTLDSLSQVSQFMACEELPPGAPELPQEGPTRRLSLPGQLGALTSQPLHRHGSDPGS
row,SMILES,"hERG current change (%, negative = inhibition) at 10uM"
1,O=C(O)C1CCN(C(=O)c2ccco2)CC1,9.94%
2,O=C(NCc1ccc(Cl)cc1)c1ccc(CSc2nc3ccncc3[nH]2)cc1,20.4%
3,COC(=O)C(C)n1cnc2c(nnn2-c2cccc(OC)c2)c1=O (stereo not drawn),9.89%
4,Cc1ccn2c(=O)c(C(=O)NCCCN3CCCC3=O)c(O)nc2c1,27.6%
5,CC1(C)CCC[C@]2(C)C(CS(=O)c3ccccc3)=C(C=O)CC[C@@H]12 (stereo partly drawn),-7.28%
6,COc1ccc(NC(=O)CSCC(=O)Oc2c(OC)cccc2OC)cc1,-3.97%
7,CSc1oc(-c2ccco2)nc1S(=O)(=O)c1ccccc1,0.571%
8,CCN(CC)CCNS(=O)(=O)c1ccc2[nH]cc(C(=O)O)c(=O)c2c1,9.99%
9,COc1cc(CNCCc2ccccc2)cc(Cl)c1OCc1ccccc1.Cl,-18.7%
10,Cc1ccc(C(=O)C(OC(=O)CN2C(=O)c3ccccc3C2=O)c2ccccc2)cc1C (stereo not drawn),11.5%
11,O=c1c2ccccc2ncn1-c1ccc([N+](=O)[O-])cc1Cl,-6.09%
12,Cc1cc(SCC(=O)Nc2cccnc2Cl)nc2ccccc12,7.39%
13,CC1CCCN(C(=O)Cc2ccc(F)cc2)C1 (stereo not drawn),5.82%
14,OCCNC(=S)NCc1ccccc1,0.684%
15,Cc1cc(C(=O)CSc2nnc(N)s2)c(C)n1-c1c(C)n(C)n(-c2ccccc2)c1=O,-2.2%
16,COc1cc(C2NC(=S)NC3=C2C(=O)CCC3)ccc1O (stereo not drawn),15.2%
17,c1cncc(-c2ccc3[nH]ccc3c2)c1,-7.45%
18,COc1ccc(OC)c(S(=O)(=O)Nc2ccccc2O)c1,0.776%
19,Cc1ccc(NCc2nc3ccccc3n2C)cc1,-5.49%
20,N#C/C(=C\c1ccncc1)c1ccc(NC(N)=O)cc1,13.8%
21,C=CCOc1ccc(CNc2ccc(NC(=O)CCC)cc2)cc1OCC,4.6%
22,CN1CCN(C2=C(Cl)C(=O)N(Cc3ccccc3)C2=O)CC1,-31.8%
23,Cc1nc2ccccc2c(=O)n1-c1ccc(F)cc1F,3.52%

row,SMILES,"hERG current change (%, negative = inhibition) at 10uM"
1,COc1ccccc1OC[C@H](O)CO,24%
2,Cc1ccc(CN2CCN(C(=O)c3ccncc3)CC2)cc1.O=C(O)C(=O)O,-0.159%
3,COc1ccc(C2CC(c3ccccc3)=NN2C(=O)COC(=O)c2nc3nccc(C)n3n2)cc1 (stereo not drawn),23.4%
4,Cc1cccc(-n2cnc(C(=O)NNC(=S)Nc3ccccc3)c2)n1,16.2%
5,O=C(Nc1ccccc1C(F)(F)F)c1cnccn1,15.8%
6,CC(C)COC(=O)c1ccccc1OC(=O)c1ccncc1,5.1%
7,N/C(=N\OC(=O)CCCOc1ccc(Cl)cc1Cl)c1ccncc1,-28.5%
8,N=C1C(c2ccccc2)=C(O)CN1c1ccccc1,-1.59%
9,CCOc1ccccc1/C=C(\C#N)C(=O)Nc1cccc(C(=O)O)c1,-8.31%
10,CC(C)Cn1c(=S)[nH]c2cc(Cl)ccc21,1.84%
11,CCOc1ccc(N(CC(=O)NCc2cccs2)S(=O)(=O)c2c(C)noc2C)cc1,-5.7%
12,COC(=O)C1CCN(C(=O)/C=C/c2ccc(OC)cc2)CC1,-8.38%
13,CC(C)Oc1cccc(C(=O)NC(=S)Nc2ccc(N3CCN(C)CC3)cc2)c1,-7.11%
14,Cc1ccc(N2C(=O)CC(Sc3ncn[nH]3)C2=O)cc1 (stereo not drawn),12.4%
15,O=C(COc1ccccc1F)NCC(c1ccc(F)cc1)N1CCOCC1 (stereo not drawn),-1.29%
16,CC(C)C(=O)Nc1cccc(-c2cn3ccsc3n2)c1,1.26%
17,Cc1ccc(/C=C/C(=O)Nc2ncc(C)s2)o1,-3.3%
18,CCOC(=O)C1CCCN(c2oc(-c3ccc(OC)cc3)nc2C#N)C1 (stereo not drawn),-5.97%
19,COc1ccc(CCn2c(NN)nc3c2c(=O)[nH]c(=O)n3C)cc1,4.22%
20,O=C(CSc1ncnc2sc3c(c12)CCC3)N1CCOCC1,12.2%
21,Cc1ccc(C(=O)NC(=S)Nc2ccccc2C(F)(F)F)cc1C,10.2%
22,Cc1cccc(NC(=O)c2cc(NC(=O)C3CCCCC3C(=O)O)ccc2Cl)n1 (stereo not drawn),4.05%
23,CN(C(=O)c1ccno1)c1nnc(-c2ccccn2)s1,-2.17%

row,SMILES,"hERG current change (%, negative = inhibition) at 10uM"
1,Clc1ccc(C2=NN(c3ccccc3)C(c3ccco3)C2)cc1 (stereo not drawn),14.3%
2,Cc1ccccc1NC(=S)N(C)Cc1cn(C)c2ccccc12,-1.47%
3,N#Cc1cccc(NC(=O)CCn2ccnc2)c1,2.87%
4,COc1ccc(Oc2cc(NC(=O)c3nn(C)cc3[N+](=O)[O-])cc([N+](=O)[O-])c2)cc1,-1.71%
5,C#CCOc1ccc(C2C3=C(CC(C)(C)CC3=O)N(CC(=O)O)C3=C2C(=O)CC(C)(C)C3)cc1,-2.03%
6,Cc1ccc(S(=O)(=O)CCC(=O)N(C)C2CCCCC2)cc1,8.61%
7,O=C(CNC(=O)c1ccccc1F)c1ccc(Br)cc1,7.47%
8,O=C(/C=C/Nc1ccc(F)c(F)c1)c1cccs1,9.02%
9,CNc1ncc(C(=O)c2ccc(F)cc2)s1,5.44%
10,Cl.Cn1cccc1CNC1CCCCC1,4.09%
11,Cn1nc(C(F)(F)F)c(-c2ccc(Br)cc2)c1NC(=O)c1cccnc1,0.61%
12,Cc1ccc(S(=O)(=O)Nc2nc3ccccc3s2)cc1,14.6%
13,CC(C)CCNC(=O)NC(=O)COC(=O)C1CCN(S(=O)(=O)c2ccccc2F)CC1,6.15%
14,CSc1sc2ccccc2[n+]1CCCS(=O)(=O)[O-],16.6%
15,O=C(c1ccc(N2CCCC2=O)cc1)N1CCN(c2ccc(Cl)cc2)CC1,-33.8%
16,O=C(CC1Nc2c3ccccc3nc(=S)n2C1=O)NC1CCCCC1 (stereo not drawn),17.4%
17,CCCCn1nnnc1SCC(=O)c1ccccc1F,-4.28%
18,CCn1c(SCC(=O)NCc2ccco2)nnc1-c1ccncc1,18.6%
19,COc1ccc(/C=C/C(=O)Nc2ccccc2Cl)cc1S(=O)(=O)N1CCOCC1,-40.5%
20,C#CCOCCOCCOCCNc1nc(N2CCN(C(=O)CCCCCCCCCCNC(=O)[C@@H](CCSC)n3cc(CCO)nn3)CC2)nc(N2CCN(C(=O)CCCCCCCCCCNC(=O)[C@@H]([C@H](C)O)n3cc(C)nn3)CC2)n1,5.39%
21,CCOc1ccc(S(=O)(=O)NC(C)C(=O)NCc2cccnc2)cc1 (stereo not drawn),3.67%
22,O=C(CCc1nc2sc3c(c2c(=O)[nH]1)CCCC3)NCC(=O)Nc1ccccc1Br,-1.81%
23,Cc1cc(C)cc(NC(=O)Cn2nnc(C(=O)NCc3ccco3)c2N)c1,6.01%

row,SMILES,"hERG current change (%, negative = inhibition) at 10uM"
1,Cc1ccc(S(=O)(=O)n2nc(C)c(S(=O)(=O)N3CCCCC3)c2C)cc1,25.7%
2,Cc1cccc(C2CC(c3ccc(F)cc3)Nc3nc(N)nn32)c1 (stereo not drawn),-34.1%
3,COc1cc(-c2n[nH]c(=S)n2C(C)c2ccccc2)cc(OC)c1OC (stereo not drawn),9.19%
4,COc1cccc(NC(=O)CCNC(=O)Cn2ccc3ccccc3c2=O)c1,-2.25%
5,CCOC(=O)c1cn(-c2ccc([N+](=O)[O-])cc2)c2cc(Cl)c([N+](=O)[O-])cc2c1=O,7.14%
6,O=C(O)c1ccc(C2(c3ccc(C(=O)O)cc3)OC(=O)c3ccccc32)cc1,-8.81%
7,O=C(NCCc1ccccc1)c1ccccc1NC(=O)C1CC=CCC1C(=O)O (stereo not drawn),26.4%
8,CC1(C)Cc2c(c(-c3ccccc3)nc3sc4c(=O)[nH]c(=S)[nH]c4c23)CO1,-19.1%
9,C/C(=N\NC(=O)c1ccc2c(c1)OCO2)c1ccc(C(=O)O)s1,15.2%
10,Cc1nn2c3c(cnc2c1-c1ccccc1)C(=O)CC(c1ccco1)C3 (stereo not drawn),-3.37%
11,CCOc1ccc(Nc2nnc(Cc3ccc(OC)cc3)c(=O)[nH]2)cc1,19.4%
12,COC(=O)C1=C(C)N=C2SC(C)C(=O)N2C1c1cccs1 (stereo not drawn),7.16%
13,CCc1ccc(NC(=O)Cn2nnc(C(=O)NCc3ccc4c(c3)OCO4)c2N)cc1,-21.6%
14,CCC(=O)N1CCc2cc(S(=O)(=O)CCC(=O)Nc3c(C)n(C)n(-c4ccccc4)c3=O)ccc21,0.301%
15,Cc1cccc(C)c1OCC(=O)Nc1oc(-c2ccccc2)c(-c2ccccc2)c1C#N,15.4%
16,CC(C)C(=O)N1CCN(c2nc(-c3ccccc3)c3c(c2C#N)CCCC3)CC1,-26.6%
17,NC(=O)NC(=O)COC(=O)CCSc1ccccc1,31.6%
18,COc1ccccc1NC(=O)C(C)NC(c1ccccc1)c1ccccc1 (stereo not drawn),17.5%
19,CC(C)(C)NC(=O)COc1ccc(-c2ccccc2)cc1,-10.7%
20,CC(=O)CC(=O)Nc1ccc(Cl)cn1,13.7%
21,O=S(=O)(NCc1csc(-c2cccnc2)n1)c1ccc(Cl)s1,-37.1%
